Several values for one entry are separate records, joined by “and”; a condition that tells them apart may be missing. Equal entries are not always repeated. Hit rate of the full screen: of about 390,000 compounds, about 4,000 (1%) were called active. The inconclusive results got no clear call from the source; some entries with a clear call stand among them for comparison. Calls come from the whole dose curve; as a rule, active = well fitted inhibition curve with a large enough effect; inconclusive = small, poorly fitted or top-dose-only effect; inactive = no such curve, though single readings can be large or run the other way. Potencies beside an inconclusive call are fits to weak or partial responses and may not hold up.
These compounds were tested against Thioredoxin reductase 1, cytoplasmic (Rattus norvegicus) (UniProt O89049) (assay: qHTS Assay for Inhibitors of Mammalian Selenoprotein Thioredoxin Reductase 1 (TrxR1): qHTS). Details: recombinant rTrxR1, NADPH fluorescence consumption, selenite substrate; series mostly up to 114 µM; activity change, negative = inhibition: at the top concentration.
UniProt O89049, sequence (O89049 whole entry, looked up): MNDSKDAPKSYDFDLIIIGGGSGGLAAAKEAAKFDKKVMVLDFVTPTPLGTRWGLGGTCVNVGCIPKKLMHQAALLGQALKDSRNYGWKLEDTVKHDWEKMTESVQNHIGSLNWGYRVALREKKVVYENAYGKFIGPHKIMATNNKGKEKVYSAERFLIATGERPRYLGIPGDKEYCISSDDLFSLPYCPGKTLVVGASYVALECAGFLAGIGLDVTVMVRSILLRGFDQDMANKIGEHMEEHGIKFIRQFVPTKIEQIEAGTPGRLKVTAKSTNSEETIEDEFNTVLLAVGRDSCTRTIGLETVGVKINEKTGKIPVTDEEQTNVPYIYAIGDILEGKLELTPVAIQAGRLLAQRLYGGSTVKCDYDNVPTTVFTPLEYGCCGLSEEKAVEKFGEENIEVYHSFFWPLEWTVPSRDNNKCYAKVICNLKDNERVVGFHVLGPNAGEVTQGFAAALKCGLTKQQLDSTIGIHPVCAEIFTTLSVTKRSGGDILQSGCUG
How it was run: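 Rat TrxR1 (90 nM in the dispensed reagent) was pre-reduced with 400 uM NADPH for 5 min at room temperature, then incubated with compound for 15 min. After 400 uM selenite was added, NADPH fluorescence (Ex 340/Em 450 nm) was followed for 8 min.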
% is set by controls: 0 for no effect and ±100 for the full control effect; potency is the fitted concentration of half-maximal effect; tags give direction and shape of the fitted curve.
Note: nearly all actives have a fitted effect of over 65% in size.

SMILES	activity change, negative = inhibition	Potency
CCOCCCNC(=O)c1[nH]c2cc(OC)ccc2c1Sc1ccccc1	inactive: 14.6%	–
Cc1ccc(C(=O)Nc2nnc(NC(=S)Nc3ccccc3)s2)cc1	–	inconclusive: 10 µM [inhibitor, partial curve]
COc1ccc(/C=C/C(=O)c2ccc([N+](=O)[O-])o2)cc1OC	–	active: 14.1 µM
COc1cc(CN2CCN(S(=O)(=O)c3ccc(NC(C)=O)cc3)CC2)cc(OC)c1O	–	active: 12.6 µM
O=C(N/N=C/C(Cl)=C\c1ccccc1)c1cccs1	–	inconclusive: 79.4 µM [inhibitor, single point]
COc1ccc(OC)c(C(=O)/C=C/c2cccnc2)c1	–	inconclusive: 35.5 µM [inhibitor, partial curve, poor fit]
Cc1ccccc1N1CCN(c2ccccc2NC(=O)/C=C\C(=O)O)CC1	–	inconclusive: 1.58 µM [inhibitor, full curve, poor fit]
CNCC(O)c1ccc(O)c(O)c1 (centres undefined)	–	inconclusive: 224 nM [inhibitor, full curve, poor fit] and inconclusive: 35.5 µM [inhibitor, partial curve, poor fit] and inconclusive: 5.97 µM [inhibitor, full curve]
CCOc1ccc(-c2csc(-c3nc(-c4ccc(Br)s4)cs3)n2)cc1	inactive: 16.6%	–
Cc1ccccc1C1C(C#N)=C2N=C(N)c3c(sc4c3CCCCC4)N2C2=C1C(=O)CC(C)(C)C2 (centres undefined)	–	inconclusive: 79.4 µM [inhibitor, single point]
CC(C)C(C)NC(=O)COc1ccc(-c2ccccc2)cc1 (centres undefined)	inactive: 12.9%	–
CCOc1ccccc1CN1CCNC(=O)C1CC(=O)NC1CCCCCCC1 (centres undefined)	–	inconclusive: 50.1 µM [inhibitor, partial curve, poor fit]
O=[N+]([O-])c1ccc(N2CCNCC2)cc1NCc1cccnc1	–	inconclusive: 50.1 µM [inhibitor, partial curve, poor fit]
Cc1ccc(CNC(=O)c2cnc3ccccc3n2)cc1	–	inconclusive: 31.6 µM [inhibitor, single point]
COc1ccc(C(=O)CCN2CCN(c3ccccc3F)CC2)cc1	–	active: 1.58 µM
O=C(CCSCCC(=O)NCc1ccco1)NCc1ccco1	–	inconclusive: 44.7 µM [inhibitor, partial curve]
CCOC(=O)c1cccc(NS(=O)(=O)c2c(C)nc3sc(C)cn3c2=O)c1	inactive: 3.19%	–
O=C(Nn1cc(C(=O)Nc2ccccc2F)c2ccccc2c1=O)c1cnccn1	inactive: 14% [at 57.1 µM]	–
Cc1ccc(NC(=O)c2nc(S(=O)(=O)Cc3ccccc3F)ncc2Cl)cc1	–	active: 2.82 µM
